Experimental data from the supplement of paper PMC3334620.
In all, about 33,000 sequences were measured (“E-score (-0.5 to 0.5)”: median about -0.035, highest 2% from about 0.35 on). This is one part of the list.

biological target: T1, Pdr3 (UniProt P33200); test: PBM E-score (8-mer binding enrichment) (E-score (-0.5 to 0.5)); higher = stronger / more preferred TF binding; most listed sequences are background and not binding sites; conditions: protein concentration: 200 nM; construct: GST-full length
T1 sequence: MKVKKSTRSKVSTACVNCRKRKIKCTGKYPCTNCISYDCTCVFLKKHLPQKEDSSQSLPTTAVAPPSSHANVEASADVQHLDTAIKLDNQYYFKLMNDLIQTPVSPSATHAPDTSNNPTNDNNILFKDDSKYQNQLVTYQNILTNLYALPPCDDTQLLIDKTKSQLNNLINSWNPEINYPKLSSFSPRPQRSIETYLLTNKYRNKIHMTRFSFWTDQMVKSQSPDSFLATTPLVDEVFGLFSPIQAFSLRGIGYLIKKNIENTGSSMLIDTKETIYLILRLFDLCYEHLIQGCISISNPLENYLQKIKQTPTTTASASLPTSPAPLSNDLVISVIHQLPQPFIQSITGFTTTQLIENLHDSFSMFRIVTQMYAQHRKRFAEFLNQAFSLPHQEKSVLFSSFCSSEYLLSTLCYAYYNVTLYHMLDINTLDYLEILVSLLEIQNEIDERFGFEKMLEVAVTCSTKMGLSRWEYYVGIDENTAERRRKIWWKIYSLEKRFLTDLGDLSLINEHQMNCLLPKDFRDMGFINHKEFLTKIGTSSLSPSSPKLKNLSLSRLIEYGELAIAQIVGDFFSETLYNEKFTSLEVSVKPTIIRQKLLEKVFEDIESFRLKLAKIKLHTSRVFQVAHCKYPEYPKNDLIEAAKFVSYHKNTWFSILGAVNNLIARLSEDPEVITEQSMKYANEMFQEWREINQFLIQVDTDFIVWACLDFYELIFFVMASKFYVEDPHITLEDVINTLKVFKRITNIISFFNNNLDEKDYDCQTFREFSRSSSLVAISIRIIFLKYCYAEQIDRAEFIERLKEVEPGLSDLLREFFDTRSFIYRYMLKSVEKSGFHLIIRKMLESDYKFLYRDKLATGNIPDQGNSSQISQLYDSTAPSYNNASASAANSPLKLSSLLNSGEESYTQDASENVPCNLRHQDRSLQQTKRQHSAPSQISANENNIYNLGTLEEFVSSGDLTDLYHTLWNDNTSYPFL
Outline: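 Universal all-10-mer Agilent arrays, double-stranded by primer extension on fresh or once-stripped slides, were probed with about 100-200 nM GST-tagged yeast transcription factors made by PURExpress. Fluorescent anti-GST detected bound protein, and masliner normalised the scans. E-scores from the Universal PBM Analysis Suite were given to each ungapped eight-base word pooled with its reverse complement.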

| Sequence | PBM E-score |
| --- | --- |
| ACTGAACC | 0.00178 |
| AACGGCGA | 0.265 |
| GGGCATCA | -0.133 |
| CGGTACAC | 0.0159 |
| GACTGATA | -0.093 |
| AGCTCCGC | 0.287 |
| ACTAACGC | 0.0417 |
| AACAAGAC | 0.0408 |
| GAGCGTCC | -0.174 |
| AATGGACG | 0.158 |
| AGAGTCGC | -0.0813 |
| ACTCCTAG | -0.216 |
| ATGACACC | -0.216 |
| TCGGAACA | 0.483 |
| GGGGCTGA | -0.13 |
| ATCGATTA | 0.0272 |
| GCACTACA | -0.283 |
| ACGTATCT | -0.128 |
| CCAATGCC | 0.0068 |
| GAAACCGC | 0.278 |
| AATGTTGG | -0.0119 |
| ATTTAACG | 0.0331 |
| AAGGGCCT | -0.167 |
| CGTAGCCC | -0.141 |
| ACAGATTA | -0.204 |

| Sequence | PBM E-score |
| --- | --- |
| AGGATGCC | -0.0876 |
| AGTAGAAC | -0.289 |
| ACCTTAGA | -0.126 |
| AGAAGCTG | -0.0532 |
| AGCATTCG | -0.083 |
| ATCATAAC | 0.00954 |
| GGATCTTA | 0.118 |
| CTAGAAGC | -0.166 |
| CCAGTAGA | -0.177 |
| TATCCCGA | 0.305 |
| CAGGTCTC | -0.332 |
| CAAAAAGC | 0.0377 |
| CGCGCGGC | 0.373 |
| ATCTTAAC | -0.103 |
| ATTGTCCA | -0.00495 |
| AGGTTTAG | -0.336 |
| AACAATTC | 0.0336 |
| AGTATAAC | -0.279 |
| CGGAGTCA | 0.26 |
| CAGGGCCG | -0.0183 |
| ATTGCTGC | 0.0872 |
| CAACCCTC | -0.103 |
| GGTTAACA | 0.123 |
| CCCGGCTA | 0.201 |
| CTATTAAA | 0.0349 |

| Sequence | PBM E-score |
| --- | --- |
| CCTGGCAC | -0.122 |
| AATTAGTG | 0.0606 |
| GAATCCCA | 0.105 |
| TCGTTCAA | -0.125 |
| AGTGTAGG | -0.235 |
| ACTCAAGT | -0.281 |
| GGGCTACA | -0.149 |
| TGCGGACA | 0.237 |
| CACAGAGC | -0.149 |
| AGATTTTG | -0.038 |
| GACATAAC | 0.0732 |
| CACCCGCA | 0.115 |
| AACAACAT | -0.0801 |
| GCGCTTAC | 0.0463 |
| GGACCTCA | -0.0418 |
| GCTTCAAA | -0.0867 |
| ATGAGGGC | 0.027 |
| AGAACATC | -0.1 |
| AATGTGCG | 0.151 |
| ACAAAGGC | -0.11 |
| AACGTGCC | 0.0825 |
| GGCACTGA | 0.0182 |
| AGCTTCTG | 0.0299 |
| CTAACTTC | -0.0626 |
| CACGTGCA | -0.231 |

| Sequence | PBM E-score |
| --- | --- |
| CTTAGCAA | -0.114 |
| ACTGATTC | -0.0772 |
| GAAATTCA | 0.136 |
| AACCTATG | -0.285 |
| CGGTAAGC | 0.0908 |
| AGCTTAAA | -0.242 |
| CCGCAAGC | 0.0626 |
| GTCGCGAC | 0.38 |
| CACCTCTA | -0.0528 |
| CTGTTAAC | -0.00392 |
| CCTTACCA | -0.318 |
| CCAGCACC | -0.143 |
| ACTTAAAG | -0.307 |
| AATGTTAT | 0.00821 |
| ACCACCCC | -0.102 |
| CAGGGCCC | 0.0314 |
| CGTATTTA | 0.164 |
| AGGCTACA | -0.254 |
| ACTCTCAA | -0.409 |
| AAGGTTAG | -0.185 |
| CGATCAGC | 0.115 |
| GGCCAGTA | 0.0807 |
| AGATCCCG | 0.4 |
| CTACAATC | 0.109 |
| CCGACAGG | 0.178 |

| Sequence | PBM E-score |
| --- | --- |
| ATCGCGTG | 0.0667 |
| CAATACAG | -0.0184 |
| CTTTGGAA | -0.0819 |
| CGGATATA | 0.346 |
| CGCTGCTC | 0.0177 |
| CCTTAATC | -0.0473 |
| AAATTCGC | 0.0536 |
| TAAACAAA | -0.159 |
| CGGCTTGA | 0.148 |
| CAACGCCC | -0.0137 |
| AGCCCTAC | -0.089 |
| GTGTTGCA | -1e-05 |
| CAATAGCG | -0.0265 |
| CTATTAAC | -0.0056 |
| GGGATTAA | 0.194 |
| ATAAGGAA | -0.168 |
| GTCATCTA | 0.0242 |
| GACATGCC | 0.0765 |
| AGAAATCT | -0.0933 |
| CATCCGAC | 0.276 |
| ACAGGATG | 0.012 |
| ACAGGAGA | 0.0653 |
| ACTCCCAG | 0.0209 |
| TGGGAGAA | -0.284 |
| ATCAGCCG | 0.246 |

| Sequence | PBM E-score |
| --- | --- |
| ACATCCGC | 0.343 |
| CTTCTGGA | -0.0291 |
| AGAATTCA | -0.189 |
| TGCTTCCA | -0.309 |
| AGGGCCAG | -0.166 |
| ACTGCAGT | -0.218 |
| GGCCTCCC | 0.0149 |
| ACTCCCAT | -0.168 |
| ATTGACTG | -0.0917 |
| TTATACAA | -0.0528 |
| ATTTTCGG | 0.222 |
| CCGGGACG | 0.365 |
| CATCTCCA | -0.0531 |
| ACGAACAT | 0.0776 |
| CGCTGTAA | 0.104 |
| ACACATTG | 0.218 |
| ACAAATCG | -0.0329 |
| AAGATAGG | -0.249 |
| AGCATATG | -0.291 |
| ATTGGGGC | -0.0658 |
| AAGGCCCG | 0.121 |
| GCTTCTGA | 0.06 |
| AGACATGA | -0.245 |
| GGAACTTA | 0.234 |
| AAGAGCGT | -0.0582 |

| Sequence | PBM E-score |
| --- | --- |
| ATTCACAC | 0.0802 |
| GCTACGCA | -0.0228 |
| GCGATGCC | -0.106 |
| GTGAGCAA | -0.185 |
| CCTAGGAC | -0.159 |
| GAGTCAGC | -0.209 |
| CCCCTCAC | 0.0434 |
| ACAGGGAC | 0.0175 |
| CTCCGTGC | 0.263 |
| TAAACCCA | -0.103 |
| CTTATCGA | 0.0214 |
| AGCTCCAT | -0.0395 |
| GGTATATA | 0.0219 |
| ACACTATA | -0.0905 |
| CATGAGGC | -0.0833 |
| GTCTATAA | -0.0998 |
| ATCAACAG | 0.125 |
| AGATAGAA | -0.0842 |
| ACTCGACC | -0.0578 |
| ATAGATAA | -0.0586 |
| CACTGTAG | 0.00579 |
| CAGCACTG | -0.0433 |
